In the supplement of paper PMC12217912:
This is one part of the list. Sequences were assembled here from the parent chain. Values near 0.05 are background.

B1: TEV protease; numbered along this chain (parent)
chain: MGESLFKGPRDYNPISSSICHLTNESDGHTTSLYGIGFGPFIITNKHLFRRNNGTLVVQSLHGVFKVKDTTTLQQHLVDGRDMIIIRMPKDFPPFPQKLKFREPQREERICLVTTNFQTKSMSSMVSDTSCTFPSGDGIFWKHWIQTKDGQCGSPLVSTRDGFIVGIHSASNFTNTNNYFTSVPKNFMELLTNQEAQQWVSGWRLNADSVLWGGHKVFMVKPEEPFQPVKEATQL

Variants of: B1
Assay: raw area under fraction-flipped curve 0-4 h after induction (AUC4h, not background-subtracted), DNA-recorder readout of cleavage of the substrate (dimensionless); higher = more cleavage of the substrate by the protease variant
Conditions: temperature: 34 °C; time window: 0-4 h after rhamnose induction
Description: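 In vivo DNA recorder in E. coli TOP10(DE3) ΔrhaA at 34 °C. Each TEVp single-site mutant (parent TEVp 0) is paired with a single-site variant of the 7-mer TEVs (canonical ENLYFQ|S). The substrate sits between flexible linkers in a Bxb1-sfGFP-TEVs-SsrA fusion, so cleavage stabilises Bxb1 and speeds flipping of a recombination array, read by NGS. The value is the raw area under the fraction-flipped curve over 0-4 h after rhamnose induction (AUC4h), with ≥20 reads per time point. It is not background-subtracted; inactive controls average about 0.047.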
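Note: Bxb1 expression induced with 0.2% (w/v) L-rhamnose at OD600 near 0.5, cultures sampled hourly, flipped fraction per protease–substrate barcode pair counted by paired-end Illumina sequencing.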

Row | Variant | area with substrate EALYFQS | area with substrate EFLYFQS | area with substrate EGLYFQS | area with substrate EHLYFQS | area with substrate EILYFQS | area with substrate EKLYFQS | area with substrate ELLYFQS | area with substrate EMLYFQS | area with substrate EQLYFQS | area with substrate ERLYFQS | area with substrate ESLYFQS | area with substrate ETLYFQS | area with substrate EYLYFQS | area with substrate EDLYFQS | area with substrate EELYFQS | area with substrate EPLYFQS | area with substrate EVLYFQS | area with substrate EWLYFQS | area with substrate ECLYFQS
1 | V113M | 0.0947 | 0.0881 | 0.0961 | 0.113 | 0.0894 | 0.112 | 0.0791 | 0.102 | 0.11 | 0.0926 | 0.094 | 0.0999 | 0.101 | – | – | – | – | – | –
2 | V113S | 0.0719 | – | 0.0657 | – | 0.0732 | 0.0897 | – | 0.0566 | – | 0.0696 | 0.0735 | – | 0.0606 | 0.0799 | 0.0829 | 0.072 | 0.0698 | 0.0598 | –
3 | T71V | 0.0969 | – | 0.0798 | – | 0.0616 | – | 0.0862 | – | 0.0954 | 0.0969 | 0.0968 | – | 0.0902 | 0.0917 | – | – | – | 0.0819 | 0.0863
4 | Q75W | 0.0625 | – | 0.0654 | 0.101 | 0.0633 | – | 0.0732 | 0.0704 | 0.0683 | – | 0.0769 | – | 0.0621 | – | – | 0.0597 | – | 0.0826 | 0.0604
5 | Q75E | 0.0749 | 0.0861 | 0.0595 | – | 0.0668 | 0.0646 | – | 0.0762 | 0.0658 | 0.0758 | 0.073 | – | 0.0664 | – | – | 0.0786 | 0.0648 | – | 0.0704
6 | Q75A | 0.159 | – | 0.0914 | – | – | 0.0921 | – | – | 0.124 | 0.0979 | 0.0891 | – | – | – | 0.114 | – | 0.0898 | 0.175 | –
7 | L99R | 0.105 | 0.0697 | – | 0.0917 | 0.0956 | 0.094 | 0.0912 | 0.0941 | 0.0928 | 0.0784 | 0.0933 | 0.114 | 0.0921 | 0.102 | 0.0964 | – | 0.0844 | 0.0763 | –
8 | L99Y | 0.0836 | 0.0684 | – | – | – | 0.0745 | – | – | 0.08 | – | 0.0706 | 0.0815 | – | – | 0.0761 | – | 0.0677 | – | –
9 | L99Q | 0.105 | – | 0.0757 | 0.076 | 0.0893 | 0.0971 | – | 0.104 | 0.115 | 0.121 | 0.105 | – | – | – | 0.122 | – | – | – | –
10 | D82H | 0.0601 | 0.078 | – | 0.0319 | 0.0544 | 0.021 | 0.056 | 0.0621 | – | – | 0.0598 | – | – | – | 0.0543 | – | 0.0514 | – | –
11 | D82L | 0.0537 | – | 0.041 | – | – | 0.0348 | 0.0398 | – | 0.0537 | – | 0.0573 | 0.0526 | – | 0.0514 | – | 0.0503 | 0.0595 | – | 0.0599
12 | D79K | 0.0954 | 0.08 | – | 0.0822 | 0.103 | 0.0926 | – | 0.105 | 0.0723 | 0.09 | 0.101 | – | 0.081 | – | 0.12 | 0.0969 | – | – | 0.0996
13 | D79M | 0.102 | – | – | 0.0866 | 0.0854 | – | – | 0.0922 | – | 0.0941 | 0.0931 | 0.0876 | 0.0714 | – | 0.116 | 0.105 | 0.069 | 0.072 | 0.0887
14 | D79T | 0.0853 | – | – | – | 0.0833 | – | – | 0.0016 | 0.0985 | – | 0.0602 | – | 0.118 | 0.117 | – | 0.127 | 0.0776 | – | 0.0721
15 | D79S | 0.0986 | 0.093 | 0.0843 | – | 0.0903 | 0.102 | 0.0886 | 0.0926 | – | 0.083 | 0.104 | 0.1 | – | – | 0.123 | 0.108 | 0.0846 | 0.0723 | 0.143
16 | D79F | 0.0988 | – | – | – | 0.0752 | – | – | 0.108 | – | – | 0.0888 | – | 0.0937 | 0.139 | 0.0829 | 0.0849 | 0.0916 | 0.0841 | –
17 | D79W | 0.0765 | 0.112 | 0.102 | – | 0.0817 | – | – | – | 0.109 | 0.083 | 0.0947 | 0.0982 | 0.116 | 0.0918 | – | 0.104 | 0.0728 | – | –
18 | K98F | 0.1 | – | 0.0872 | – | – | 0.0842 | – | – | 0.105 | – | 0.0984 | 0.105 | 0.102 | 0.12 | – | – | 0.0995 | 0.104 | 0.0486
19 | K98P | 0.11 | – | 0.0876 | – | 0.0983 | 0.094 | 0.0858 | 0.0954 | 0.145 | – | 0.101 | 0.122 | – | 0.0971 | 0.116 | 0.112 | – | 0.0933 | –
20 | K98S | 0.108 | – | 0.0969 | 0.095 | 0.0949 | – | 0.103 | 0.108 | 0.121 | – | 0.106 | – | 0.174 | – | 0.127 | 0.132 | – | 0.0966 | 0.1
21 | K98N | 0.108 | – | – | – | 0.0966 | 0.141 | – | 0.0992 | – | 0.106 | 0.078 | – | – | 0.127 | – | 0.12 | 0.104 | 0.101 | 0.0771
22 | I84A | 0.106 | – | – | 0.0843 | 0.0718 | – | 0.0822 | 0.0881 | 0.0806 | – | 0.0792 | 0.075 | – | – | – | – | 0.072 | – | 0.0583
23 | I84S | 0.061 | – | – | 0.0912 | 0.0791 | 0.0766 | – | 0.0658 | 0.0824 | 0.0621 | 0.0721 | 0.0542 | 0.0616 | – | 0.0776 | 0.0642 | 0.0649 | 0.0608 | 0.0693
24 | F95A | 0.108 | – | – | 0.104 | 0.0663 | 0.0853 | 0.0754 | 0.0863 | – | 0.0922 | 0.0882 | 0.0824 | – | – | 0.093 | 0.105 | 0.0863 | – | 0.0904
25 | F95H | 0.101 | 0.0831 | 0.0995 | – | 0.0918 | 0.109 | 0.0927 | 0.0816 | 0.109 | – | – | – | 0.0953 | – | 0.108 | 0.0843 | 0.0763 | – | 0.114
26 | L73R | 0.0616 | – | – | – | 0.061 | 0.103 | 0.0561 | 0.0605 | 0.0759 | 0.0635 | 0.0574 | 0.0576 | – | 0.0569 | 0.0523 | 0.0745 | 0.0731 | 0.128 | –
27 | L73E | 0.0534 | – | 0.0574 | – | 0.0441 | 0.0645 | 0.0545 | 0.0472 | – | 0.0497 | 0.0602 | – | – | – | – | 0.0485 | – | 0.061 | –
28 | L73Q | 0.0821 | 0.0489 | 0.0627 | 0.0573 | 0.0421 | 0.0707 | – | 0.0662 | 0.0701 | 0.0563 | 0.0716 | 0.0599 | 0.0733 | 0.0641 | 0.0664 | 0.0674 | 0.0595 | 0.0564 | –
